The record followed here is PMC12136788.

B1: chr14:21838049:21838050:-_ENSG00000092201_ENST00000216297|hu_hu|motif|central (ssRNA)
RNA: GGGAGUUCUACAGUCCGACGAUCGUUGAGCUCCCCAUCCUCCUUUACAGCGAUGGUAUAUGCCACAACUGCACUGAUAUCGGUUUUGUCAAAGCCUUCUUUGUUGAGGCAGUCAUUCCAGCUCUUCAUGAACUCUCCAGGGAACAACAGAGGAUUGAGCAUCA
B2: chr14:66974463:66974464:+_ENSMUSG00000022044_ENSMUST00000074523|mus_hu|mus_mus_mus_hu_False|8_58 (ssRNA)
RNA: GGGAGUUCUACAGUCCGACGAUCUUGUAGGACGACUUAUUCAGGGGAUCGGCCAGGAAGCAGGAGCAGAACAAGGACACUAGUGGGAGCUCCUUCAUCUUCUCUUUGUAGGCAGCAAGGGUCAUGUUGGCUGGAAUUGGUGGCCAACAGAGGAUUGAGCAUCA
B3: chr1:115268999:115269000:-_ENSG00000009307_ENST00000339438|hu_hu|FALSE|FALSE (ssRNA)
RNA: GGGAGUUCUACAGUCCGACGAUCUAAAAGUCGCACACAAGUUGCAACCUGCUGUCCAGGCCUCUGUUUGUCACUAAUACUAAAUUCAACCUUAUCUCCUAUUUGAGGAGAAGUAGAUCCUUCCACAUCCUUGGCUUGAAAAGCCAACAGAGGAUUGAGCAUCA
B4: chr14:72190480:72190481:+_ENSG00000197555_ENST00000381232|hu_mus|motif|central (ssRNA)
RNA: GGGAGUUCUACAGUCCGACGAUCAAAUCCCACGGAGUUAAUGGUUCCUUCUGGCUUUUUCCAUCCAAUCAGAUAUUUGCGGGUGGCGCCCUGGCGAGGGUAGAAAGUCCUAGGUCCAGAGGAGGAUGAGGAAGAAGAGGAAAACAACAGAGGAUUGAGCAUCA
B5: 163114893_163115013_3002_3pUTR_ENSG00000143248_ENST00000313961|human|control|control (ssRNA)
RNA: GGGAGUUCUACAGUCCGACGAUCAAAAGCCCUUCUUAUUUUCCGCUGAGAGGUCUACCCACUUUCAUAGGGUGUCCAGUCAAUUUGUGAGUACAGUCCACUGGAGUCUUCAUAACAUCAACCCUCUAGGUGAGAUCUGUAAUACAACAGAGGAUUGAGCAUCA
B6: chr10:70928335:70928336:+_ENSG00000122958_ENST00000263559|hu_hu|motif|central (ssRNA)
RNA: GGGAGUUCUACAGUCCGACGAUCCCAUAAAAUUAUCUCCUGCUGUUUGAAGUACCUCCGGUCUUCCUCAUCAACAAGCACGGAAUUCAAAAAGUACCUUACUGAAAAUUUUUUGUUCACAUCUCUCAUUGUUGGAGUUGGGUCCAACAGAGGAUUGAGCAUCA
B7: chr4:175158712:175158713:-_ENSG00000164117_ENST00000503293|hu_mus|motif|central (ssRNA)
RNA: GGGAGUUCUACAGUCCGACGAUCACGGCGCGUAUUUCGAAUAAACUCUCUUUUUGACAUUUUAUUCUUCACAUGAGGACGGGUGAGGUCAAUGGAAAGUAGAAUCAAAGAGUAGCACAGUACAUAGACAGCAUCAGGACUAAGCAACAGAGGAUUGAGCAUCA
B8: chr7:54825262:54825263:-_ENSG00000132432_ENST00000352861|hu_hu|hu_hu_hu_mus_False|18_28 (ssRNA)
RNA: GGGAGUUCUACAGUCCGACGAUCCUGCCGGCUGGGCUCCACAAACUGCAUUACCUGAUCCAUGUUUGUUGGAUGGCGGAUUGAGAGCGUAGAGACACGUAGCUCAGGGAGCUUGCUGAUGGAGGCCAACCGGAAGCUGGCAACCAACAGAGGAUUGAGCAUCA
B9: chr2:156005782:156005783:-_ENSMUSG00000027620_ENSMUST00000109587|mus_hu|FALSE|FALSE (ssRNA)
RNA: GGGAGUUCUACAGUCCGACGAUCGCGGAACCGCCCAGCCCGAAUAUCGGGUUCCAAGGACGGCUAGGCCCGAGAGAAUCUAAAAAAAACAAUGGAAUUAGAGAAGCCCACGCGGGAGAGCAGGACGGCGGCUUCGGCAGCUCACAACAGAGGAUUGAGCAUCA
B10: chr1:8022837:8022838:+_ENSG00000116288_ENST00000493373|hu_mus|motif|central (ssRNA)
RNA: GGGAGUUCUACAGUCCGACGAUCUCUCCUCUGCUCCUUUGGCCAGGAUGACCAGAGCUCUUUUGGAAGCCAUUUCGGUUUCUUAAAGACUGCAGCCGCGCCUCCUCCACCCACGCGAAGCCACCGCUAGUCCGCAGGAACCUCCAACAGAGGAUUGAGCAUCA
B11: chr1:39494447:39494448:+_ENSG00000168653_ENST00000372967|hu_mus|hu_hu_hu_mus_False|48_78 (ssRNA)
RNA: GGGAGUUCUACAGUCCGACGAUCGCACCGAGCGGCGUUCUUAUAGGGCUGUUCUGCACUCUGGAUUAUAAAGUGCCGGUCCAGGCUAAGGCCGAACUUUUUCUGUAUGUCAAGGAAAGGCAUGGCUCUGCAGUGCCCUUGUCACAACAGAGGAUUGAGCAUCA
B12: chr1:173703207:173703208:+_ENSG00000076321_ENST00000209884|hu_mus|FALSE|FALSE (ssRNA)
RNA: GGGAGUUCUACAGUCCGACGAUCAGCAGCAGGCAAGAGAGUCUGAACAUUGCCCUCUUCCACAGUGAUCUGGGAGGUAUAUGCAAAGUCAAUCAGGAGCUCCAUGGCCCUCUCAUCUAUGUCUCGGAUCACUACUUCUGUCUGCAACAGAGGAUUGAGCAUCA
B13: chr1:82727704:82727705:+_ENSMUSG00000026150_ENSMUST00000078332|mus_hu|FALSE|FALSE (ssRNA)
RNA: GGGAGUUCUACAGUCCGACGAUCCAGGGGUUUAAAGGGAGUUGACUGAAUAAGGUCAAGAUCUGCUGGUCUUGAAAAUGAAACAUCUUCAUUAUUUCCUGCUACAACAAUCCUCUCCGGAACUUGCAUUAUCACACUAGCAUUCAACAGAGGAUUGAGCAUCA
B14: 109517254_109517374_2683_CDS_ENSG00000085433_ENST00000369962|human|control|control (ssRNA)
RNA: GGGAGUUCUACAGUCCGACGAUCAGGAUGAUAACUUUGUACCAUUCUUCCUCCUCUUAUGUCAUACAACAUGCAGCUAGAAUCUUCUUGACCUGUGGCUAAGAGACGACCACUGGGAUCUACAGCUACAGAUGCCACUGCACUCAACAGAGGAUUGAGCAUCA
B15: 56392320_56392440_10171_CDS_ENSG00000151914_ENST00000244364|human|control|control (ssRNA)
RNA: GGGAGUUCUACAGUCCGACGAUCUUCUCCUUUCAGAACCUGAGUUUCAUAUGAAAGUAAUUCCACCUCCACUUUGUCCAGCCAGGUACACAGCUCUUCGUGUGUGGAGUGCAGCCGCCUUGCAAGCUGCAGCGCCUGUUCCAGCAACAGAGGAUUGAGCAUCA
B16: chr4:52453130:52453131:+_ENSMUSG00000028312_ENSMUST00000117280|mus_hu|FALSE|FALSE (ssRNA)
RNA: GGGAGUUCUACAGUCCGACGAUCUCCUCUGAGCAUAGGACUUGAAUCCCUCUAGAAUAAUUGACUUAAUAUGCAUUUUCGAUACUGUCUUGGGUCAGCAAACCUCUGACAGGAAUCAAACAGGCCACAAACCAGUUCGCUGCCCAACAGAGGAUUGAGCAUCA
B17: chr7:135612270:135612271:-_ENSG00000105887_ENST00000393085|hu_mus|hu_hu_hu_mus_False|1_48 (ssRNA)
RNA: GGGAGUUCUACAGUCCGACGAUCGUUUUUUUCUGAGAUGUUAAAUAGUACUUCAGUGGAAAACAAAACUUAACCUUUUAUUAAUGCAUGUAGUACCAAAAGCAGACAUUUUAGCUUCAUUUAUUCAAAAAUAUUAAGAACAUUCAACAGAGGAUUGAGCAUCA
B18: chrX:123197699:123197700:+_ENSG00000101972_ENST00000371157|hu_mus|FALSE|FALSE (ssRNA)
RNA: GGGAGUUCUACAGUCCGACGAUCUGUGUGCUUCUCUACAAUAUUUCGGAUCUGGCGCAAUAAGGCAUCCAAAUGCUUUUCUAAUCGUCCAGUGGUGUAUAUCUCCAAAUCAAAGUACUGAGGUAACUGCAACAAAUUGGUCACCAACAGAGGAUUGAGCAUCA
B19: chr1:111660612:111660613:-_ENSG00000156171_ENST00000539140|hu_mus|FALSE|FALSE (ssRNA)
RNA: GGGAGUUCUACAGUCCGACGAUCAAAAAAGUCUAGACAUGUUUUUAGAUGGACUUCUUAACAACAUCCUUUAAGAAAACUUACCAGAUGGCUUAUUACAUUUUUCCUGAUAUCAUGUUUCAUUAGUGUCACUGUCAGCCUUGACAACAGAGGAUUGAGCAUCA
B20: 25570260_25572684_1282_CDS_ENSG00000170558_ENST00000399380|human|control|control (ssRNA)
RNA: GGGAGUUCUACAGUCCGACGAUCAUUUUCUGCAGCAACAGUAAGGACAAACAUCCUAUUUGUUUCAAAGUCGAUUGGUUUGACCACGGUGACUAACCCGUCGUUGCUGUUUGGGUCGGUCUGGAUGGCGAACCGUCCAGUAGGCAACAGAGGAUUGAGCAUCA
B21: chr1:46159212:46159213:+_ENSG00000159596_ENST00000372025|hu_mus|hu_hu_hu_mus_True|8_28 (ssRNA)
RNA: GGGAGUUCUACAGUCCGACGAUCUCUGAUCCCUCCCAAGAAAGCUAGGAAACCGGCUCCAUAAGCCAUCUGAGUGAAAGCUAGGACGGGGAUAUAAGACUUUGUUAUCAGCAUGACAAGUGGGGGAGCAACGAAGGGGAUUAACAACAGAGGAUUGAGCAUCA
B22: chr2:73747962:73747963:-_ENSMUSG00000018770_ENSMUST00000018914|mus_mus|FALSE|FALSE (ssRNA)
RNA: GGGAGUUCUACAGUCCGACGAUCAGAGCCCUCUCCAGUCCUAGUCUCUGGCCGAGAUAACACUGAUGCAGAAAUUGGUCUAUAUGCAACUCUGGAUCCAGCUCGGAUCAGAGCGGGGGUGCGGGCGAGCUUGGCGCAGGCGAACAACAGAGGAUUGAGCAUCA

Some of the results follow.

In the test the target is T1, UNK ZnF1-3 (human, UniProt Q9C0B0 31-174).
T1 sequence: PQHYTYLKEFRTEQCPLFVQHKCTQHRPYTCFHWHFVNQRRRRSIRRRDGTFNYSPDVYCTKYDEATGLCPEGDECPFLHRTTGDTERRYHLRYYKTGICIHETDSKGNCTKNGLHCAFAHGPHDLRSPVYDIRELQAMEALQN
The test can be described thus: nsRBNS (natural sequence RNA bind-n-seq); RBNS binding buffer (assumed for nsRBNS): 25 mM Tris pH 7.5, 150 mM KCl, 3 mM MgCl2, 0.01% Triton X-100, 500 ug/ml BSA, 20 U/ml SUPERase-In, 4 C; UNK is unkempt and MSI1 is Musashi-1; names of the RNAs are library labels; protein concentration not given here; high values mean tight binding.
With B1, the binding signal is 0.939 enrichment R.
Take B2: the binding signal is 2.11 enrichment R.
Turning to B3, the binding signal came to 0.823 enrichment R.
The figure for B4 is 2.06 enrichment R.
The molecule B5 yielded a binding signal of 0.888 enrichment R.
On to B6, for which the binding signal came to 0.98 enrichment R.
As for B7, the binding signal worked out at 1.71 enrichment R.
Turning to B8, the binding signal was found to be 0.637 enrichment R.
B9 had a binding signal of 1.27 enrichment R.
Molecule B10 registered a binding signal of 0.729 enrichment R.
With B11, the binding signal turned out to be 0.871 enrichment R.
B12 came in with a binding signal of 1.76 enrichment R.
In turn, B13 gave a binding signal of 0.953 enrichment R.
In turn, B14 returned a binding signal of 0.818 enrichment R.
The molecule B15 had a binding signal of 0.696 enrichment R.
As to B16, the binding signal was 1.1 enrichment R.
Consider B17, for which the binding signal is 1.22 enrichment R.
As for B18, the binding signal is 1.41 enrichment R.
Under B19 stands 0.712 enrichment R; under B20, 0.819 enrichment R.
For B21, the binding signal amounted to 1.74 enrichment R.
Under B22 stands 0.996 enrichment R.
